Results from the supplement of paper PMC11417369.
This is one part of the list.

The sequences below were run on PfAP2-HC AP2 domain (GST-tagged) (assay: gcPBM binding intensity (ln(normalized median fluorescence intensity)); higher = stronger DNA binding).
How it was run: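 Using an Agilent 4 × 180k array, primer-extended double-stranded 36-bp intergenic genomic probes and negative controls were exposed for 1 h to GST-fused P. falciparum DNA-binding domains expressed in E. coli. Binding was carried out in 1× PBS with 1% milk, 0.2 mg/ml BSA, 0.5% salmon testes DNA and 0.03% Triton X-100, and protein was detected with Alexa488 anti-GST antibody and a 488 nm scan. Binding intensity is the highest Masliner-normalised natural-log median intensity across replicate spots of either probe orientation.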

Row | Sequence | gcPBM binding intensity (ln)
1 | TTTTTATAAAAAAATAGTACTCGTCTAATCTTATGT [XGTACX_site8532] | 9.47
2 | ATACATCAAGGACACACACACACACGCACACGCACA [CACACA_site6310] | 10.7
3 | AAACTATTCACTATAATACATTAGAAGTGAATAAAA [TGCATGCA_negctrl_site498] | 9.64
4 | TTATGATGGTCTTTATAAGGGCACATTAAATTCGGC [TGCATGCA_negctrl_site166] | 9.35
5 | GAGAAGACATTACACAGTACCCAGTAACTCTACGGA [XGTACX_site2000] | 9.68
6 | GATTATTATGTCCATGCATGTTAATATATATTAATT [TGCATGCA_site837] | 9.87
7 | AAATTGGGGCTTGTTACACACTTAGTGCGAGTTCTA [CACACA_site582] | 9.75
8 | CTGTATAAAACCAATGCATGTAAATATATTAATATA [TGCATGCA_site511] | 9.57
9 | AAAATATATATAAATGCATGCATAATGAAATATATA [TGCATGCA_site39] | 9.92
10 | TTTTAAAAAACAAACACACACGTAGAAAAAAAAAAA [CACACA_site4608] | 10.2
11 | GAAATTTTATTTCGGCGGACAAATGTATACTTTCTT [XGTACX_site4238] | 9.63
12 | CCATTTACATTGTGAAGTACTAAAAAAAAATGTAGA [XGTACX_site7882] | 9.48
13 | ACAAGGAATATAAAAAGTACATAAAATACATAAAAA [XGTACX_site1217] | 9.85
14 | TATGGATGTATTCATACATGCACACGTACATATTTA [TGCATGCA_site991] | 9.73
15 | ATAATTTGATGGTTAACACACATATATATTATATAT [CACACA_site2449] | 9.87
16 | ATATAAATATAAATATATATGTATAAATATAAATAT [CACACA_negctrl_site247] | 9.84
17 | ATATATTATTATAACTGTACTTTTTTTGTGGTTAAT [XGTACX_site8266] | 9.68
18 | TATGCGTATATATAAATACACACCAAATGTTAATAT [CACACA_site1713] | 9.7
19 | ATCATTTTTAAAGGAACACACAAAAAAAGTTATAAT [CACACA_site6761] | 9.71
20 | TATATATATATATATACACACAAAAAAATAAATTCT [CACACA_site98] | 9.94
21 | ATTTATTTTAATAATTGTACATGTTATTTTATATAT [XGTACX_site2667] | 9.81
22 | TACTTTTCATCTTCTTAACACACAAAAAAAAAAAAA [CACACA_site9290] | 9.37
23 | TATATATATATGTGCACACCAATTGTATGTAATATA [CACACA_site3889] | 10

Row | Sequence | gcPBM binding intensity (ln)
24 | TATTTAATTACATGAACACACATTATATATTTTTAA [CACACA_site5615] | 9.64
25 | TTTATATTATTAGAAACACACATTAGATTAAAATTA [CACACA_site3286] | 9.54
26 | TACATAATAACATGTACACACATTCTTCTATAAATG [CACACA_site4061] | 9.77
27 | ACATAATAAAAATGACGTACAATTTTTTTTTTTCAT [XGTACX_site8340] | 9.6
28 | CATTAAAAAGAAAGTTCACACACATATATATGACGG [CACACA_site8836] | 10.1
29 | ATATAACACATTAGTTGTACTATTTTTAATTGGTGA [XGTACX_site961] | 9.58
30 | ACTACATAATATTAACGTACATATTATAATACTTGC [XGTACX_site954] | 9.77
31 | TAGCCCATATGGAATACACACTGAAAATAAAAAAAG [CACACA_site5799] | 9.73
32 | TTACAATAAATTATAGTGCAATATTTTATTTAATAT | 9.48
33 | ATGAATAATTAATGATGTACTTAAAAAAAAAAATAT [XGTACX_site6346] | 9.53
34 | AAAAAAAAAAAAAAAAAAAAAAAAAAAAAAACATAT [GTGCAC_negctrl_site580] | 9.43
35 | ATATATTATATTGAATGTACATATATATATTATATA [XGTACX_site8445] | 9.58
36 | GTTAATATCTTGAACAGTACTCTAAATATCTACATA [XGTACX_site5358] | 9.57
37 | CAATGTTGTACATACACACACACAAAAAAAAAATAA [CACACA_site2407] | 11.4
38 | TTCAAATTTCCACATACACACCTTGTAGATCTATAT [CACACA_site6270] | 9.92
39 | ATAAAAAAACACACTCGTACACACATATTTTCTTTC [XGTACX_site6565] | 10.2
40 | GATAATAATAAACAACCACACACAAAAAAACAAAAA [CACACA_site9074] | 10.6
41 | TGCTATAATTTATATACACACAAATATATACACATA [CACACA_site9356] | 9.75
42 | TTTTTTTTTTTTTTTTGTACATATAAAAATACGTAA [XGTACX_site6003] | 8.98
43 | TCACTACATTTTGGACGTACACAACTTGATATATTG [XGTACX_site4775] | 9.83
44 | ATGATATACTTGAGTGTGCACAAACTATTACTTACA | 10.1
45 | AAATCTTAACTCTATGCACACATAAAAGTATATAAA [CACACA_site8709] | 9.58
46 | ATTTTGATGATGTATGCACACATTGAAAATGAGAAA [CACACA_site2916] | 9.9

Row | Sequence | gcPBM binding intensity (ln)
47 | ATATATATATATATATGTACATATTTGATTTTTCTT [XGTACX_site8171] | 9.6
48 | TATATATCGCCCTTCACACACACACGGATATAAATA [CACACA_site7221] | 10.2
49 | CGCTCTTATAAATGTTGTACATAAAACTGTTCATTA [XGTACX_site3409] | 9.63
50 | ATAATAAATATATAATGTACATATTATGTTCTTTAT [XGTACX_site8655] | 9.65
51 | ATCGGTAATATTAACACACACATTTATATATATTTA [CACACA_site1084] | 10.2
52 | TTTTGTAGATATTGAAGTACAAAAAAAATGTAAAAG [XGTACX_site5905] | 9.59
53 | TTTTTTAATATATTATTATAAATATTTTTTATGTGT [GTGCAC_negctrl_site712] | 9.72
54 | CATAATGTAAATAAGTGTACACATATATAATACATA [XGTACX_site3108] | 9.85
55 | ATGCGTTAATCTATATATATTATGTATAGATTTTCA [CACACA_negctrl_site1650] | 9.63
56 | AACATATTTATGATGTGTACCTACATAATAGAATTT [XGTACX_site141] | 9.67
57 | AACATTATGTTTATTTGTACATATAAATATATGTAA [XGTACX_site7389] | 9.43
58 | TCTTTTATGATATTTACACACAAACGTGAGATAGCT [CACACA_site2312] | 9.77
59 | CTCTACGAATTCATAGTGCAAAGAGCTAATTTTTTC [GTGCAC_site9710] | 9.39
60 | GATCATTCAGTTTTATCACACACAATCAAACATATA [CACACA_site8882] | 9.89
61 | ATATTTTGATAATATTGTACAAAAACATTAAAATGT [XGTACX_site8361] | 9.66
62 | TAATCCATAAGAAGCACACACATATAAATATATTTT [CACACA_site6774] | 10.1
63 | TTTAAATATTTTAACACACTCATATTTAGGTTACAA [CACACA_site5685] | 9.61
64 | TTTACATATTTATATACACACTTTTGCGTGTCTGGT [CACACA_site4750] | 10.2
65 | TCCATATATATTATGTGTACATATTATATATATAAA [XGTACX_site7525] | 9.55
66 | AGTAAAAGAAAGCACACACACATGTATATATGTATG [CACACA_site3858] | 11
67 | CAATATAAAAAACACACGCACACAAAAAAAAAAAAA [CACACA_site3521] | 10.3
68 | ATATATAAAATATATTGTACATTAACATATATATTT [XGTACX_site2055] | 9.57
69 | GTAATATTATATAGTTGTACTTTTTTTTTATTATAT [XGTACX_site483] | 9.73

Row | Sequence | gcPBM binding intensity (ln)
70 | AAACTTGACGGACACACACACACATATATAAAAAAA [CACACA_site4577] | 11.6
71 | ATATATAAATAAATAGTGCATTTTAATATTTAACGT | 9.73
72 | TTTCTTTATTTTTTTTTTTTTTTTTTTCCTTTTTTT [TGCATGCA_negctrl_site231] | 9.35
73 | TGTTATATTTGTGCGTGTACACATTTGAAAAAATAT [XGTACX_site3796] | 9.64
74 | AACGGGGCCAAGAAATATAAATAATCAAAACAAAAA [XGTACX_negctrl_site320] | 9.38
75 | TGTGCACGCATATACACACACAAATACAATGATAAA [CACACA_site6656] | 10.3
76 | AATATCATCAAACGCACACATACATAAATATATTAT [CACACA_site2174] | 10.5
77 | GTTCTTTCAAGTTATACACACCAAAAAAAAAAAAAA [CACACA_site7435] | 9.52
78 | TAGTACACACAAAATACATGCGGGGTTTAATATTTA [TGCATGCA_site576] | 9.89
79 | AATTCTTTCATATATTGTACGTATTCCCATAAAATA [XGTACX_site5923] | 9.63
80 | AGTGTGTGTGCGTATAGTACATATACATATATACAC [XGTACX_site6882] | 10.8
81 | AAATGAATAAAATTTATTTATAAAAGAAAAATCACA [GTGCAC_negctrl_site225] | 9.57
82 | ATAATACAAAATACATGTACAAATATTTTTCATATT [XGTACX_site1721] | 9.75
83 | TCAATAGTTACTAGTACATGCAAAAATAAACCTATA [TGCATGCA_site85] | 9.64
84 | CAAATATATATGTTCACACATATAATTATTGTGAAA [CACACA_site4190] | 9.62
85 | TTGCCATTAATTTATACACACACATTTTAATTTTTT [CACACA_site8150] | 10
86 | TTGTCATTTATAAAATGTACGTGTGTATATATTTAA [XGTACX_site5000] | 9.6
87 | TTTTAAAGCATATCATATAAAGAACATGACATAGGA [CACACA_negctrl_site630] | 9.42
88 | TTATATTTATGATACACACACGTATATTCACATACA [CACACA_site6354] | 9.9
89 | AACATTTTTAAATATATAAAAATATATATATATATA [XGTACX_negctrl_site551] | 9.39
